# PMC10726135
# The list shows a part of the results. At the low end of the ranking the order means little. Measured with an extract: partners may take part in the binding.
# Molecular target: T1, HNF4alpha8 (COS-7 nuclear extract) (UniProt P41235-5)
# T1 sequence: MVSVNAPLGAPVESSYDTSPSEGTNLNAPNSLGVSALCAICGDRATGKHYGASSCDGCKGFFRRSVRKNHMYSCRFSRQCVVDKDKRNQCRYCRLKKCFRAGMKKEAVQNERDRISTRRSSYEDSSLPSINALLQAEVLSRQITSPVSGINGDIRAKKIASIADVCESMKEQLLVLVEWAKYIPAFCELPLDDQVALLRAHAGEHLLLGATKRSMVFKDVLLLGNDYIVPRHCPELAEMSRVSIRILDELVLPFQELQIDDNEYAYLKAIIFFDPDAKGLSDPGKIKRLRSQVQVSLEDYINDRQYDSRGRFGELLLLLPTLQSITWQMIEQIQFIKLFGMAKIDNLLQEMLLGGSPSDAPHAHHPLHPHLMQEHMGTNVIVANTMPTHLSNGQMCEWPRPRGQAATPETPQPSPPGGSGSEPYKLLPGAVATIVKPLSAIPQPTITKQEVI
# Assay: protein-binding microarray
# Conditions: COS-7 nuclear extract on double-stranded Agilent 4x180k PBM; binding buffer, salt, pH and temperature not given; high values mean tight binding; double strand, one strand shown; sequences stand for … in …GCCTAGGGAGATTAGAGTATCGGTCGA
row,Sequence,binding signal (log2 normalized intensity)
1,TTTTAAAAGCCCTCAAATACTCTGAGTAAA,0.0993
2,CAGCTGACCAACAGAGAAGGCCCTGAACTC,-1.33
3,GGTTCTGGCACCTGAAGCTGCCCTTTGCAC,6.19
4,CCTCATCTGAAAAAAGCTATCATTTGTCAC,-0.193
5,TATTGTGGGTTCTTGCCCTTTGGTCTGGAA,5.29
6,GAAGACACAAAGCTTGGGTTCACATTCCAG,1.11
7,TGTGAATCTCCTGCTTTTGGAAAACTGGCC,0.0534
8,GACTTTGGTTGGATTTCTTGGCTTCTCTTG,0.989
9,AGGGGCATCCTCATTGCCTCTGGGCTTTGA,0.138
10,GAACAGATATTGGCCAAAGGGCACAAGAGG,2.29
11,GCTCAGAGGCACAGTCTGCTTTCAGAGATG,-1.21
12,TGTGTCTCCAGGAGCAATCATCGCACCTAA,-1.34
13,GGCAGCCAGCGCAGGGGCTTCTGCTGAGGG,-1.37
14,GGAGGAAATAGAGAGCAGACAGGGGCTCAG,-1.48
15,TCAAGGTTTCTTTCCCTGGGGTCAATAGTT,4.25
16,TGTGGGTTCAAATCCATTCAGCAGCGTGTA,-0.128
17,CTTAGACAGTAACCCTTGAGCTCTGCACAG,2.11
18,TGAGGCTTTTGAGTCAATAATGGACAAGTT,0.981
19,TAATCCCTTATGACGGACAAAGGGCTCTCT,-0.406
20,GGTACCCTGGCTTGTAATTCAAGACTATAG,-0.817
21,ATCTCTAAGCAAACATTCCTCCCTCCCTCT,2.77
22,TCCCGGAACCGTCTGCCCAGAGCGGCAGCG,-1.29
23,TCTCTGTAGGTAAACAGTGACTCATGCAAG,0.144
24,TCCTGACCAGGGGCCAGCAAGAGGTGACCC,4.14
25,TTATTGTGAACTGGAGCAAAGGTCACTCTT,6.18

row,Sequence,binding signal (log2 normalized intensity)
1,AACAGGCATCAACTCTATCATACTCAGCTA,-1.3
2,GTCCGAACTCACTACAAACGCCTCTAAGCT,-1.32
3,CCAGCTGTCACCCAGCCAGAATTCTCCCTG,-1.36
4,CCTTTGTCCCGTTATGGCACCAAGAAACCT,0.0821
5,ATCTTGGACTTGGGACTCTGCAGACTGGTG,4.29
6,CCCCCACCTGTGAAGATAAGCTGTCAATTT,1.5
7,GGCAAGATTTTGTCCTGAGTTATTGGAAGA,0.282
8,CAACGTCCAGAGATTTGCTCGCATTCTTCC,-0.919
9,GTAGGTAAACAGTGACTCATGCAAGCCTGA,-1.37
10,CCCCAAAGGCAGGCAGCATGGAATGACTTT,-0.344
11,GGTCCCACACACCTCAAATGCAGGTGAGAG,-1.39
12,TATCTCTCCAAGGTACTGTGAACTCCAGCT,0.176
13,TAGTGTAGTTCCGCTGCTGTCTCGGGGCCA,-1.38
14,TACTCTCTTTGGAGTGCTCCCGCCTGACCT,3.1
15,ACCTTTGCCCTTCTTGTTAACCTCCTATGA,3.15
16,CTAATGCCACCATTGATCTAACAGGAGGTG,-1.26
17,GCGGTTACTTCGAGTACATTGTAACCACCT,0.886
18,TCAGTTAAGGCTTTGAAGTAGGGGCTGCTG,-0.875
19,CCACCTGGTGGCAATGTGTCAGAGAAGGAG,-1.34
20,ACTGTGTTGCAAATTATTACTCCCACCGTG,0.0649
21,GGGTATTTCCTAAACCAACTATAGAAAGCC,-1.39
22,GCCCCCTCCCCCTGCCGGCGGCGCAGACGG,4.75
23,GCCCATAGAATCTTAGGAAAGCACAGCTGA,-1.41
24,GTTTTATATGAAAACAAAGGAAACCAAACA,-1.03
25,AATATTTAGCTTTCAGTGACTGCTCATTCT,-1.17

row,Sequence,binding signal (log2 normalized intensity)
1,CCAACAGGTCAGGGAGTAGGTTTGATTTGT,1.1
2,GTGGGAAATCATTCCAGCTATTCTGCCTTA,-1.25
3,GTGAGTGTGTTGGCAAGAGATCTGCAGGGT,1.02
4,AGTTTGGTGGACTTTGGCCGTGAAGCCGTC,6.75
5,AACAAATTGTGTGCAACAGGAGCCCAGAGA,-1.34
6,CCAGTTCCCTCATTAGTAACTCCAGAGATA,-0.985
7,ATTAACTAACCTTTGAACCAGATGGCCCTC,4.3
8,GAAGCCAGGGGTAAGTTTCTAACTACCATG,-1.29
9,ACTTATTACCGGTGTGACTTTGGTTGGATT,1.7
10,ATGCCTGGGGTTCCAGTTACTGGAGGCTGG,-0.354
11,CAGGGGGAGGCTCAGAGTCTGTGGAGACAC,-1.38
12,CCAGGGACCAGGAAGGCAGTAAGAGAGAAA,-1.35
13,ACTGACAGAGATCAAAAACCAAAGCTGGAG,-1.28
14,ACCCCCCACTCTTCATATCTTCCCATACTG,0.437
15,TAGGTATGATAACCCCCGTCACTGCAAGGC,3.49
16,ACTTGCCACGGAATCCCAGTTCTGATACAC,-1.04
17,ACCTGCCTAACATTCTCTAATCAGGTCGCT,-1.25
18,TTCAGAAGACTTCCTGGCCTCTCTGCAAAT,-0.39
19,GGGACTTCAAAGGCTCCCCTAATCCCTGTG,0.686
20,TGGTTTAGATAAGCACTTCAAAGGTCGTGT,3.77
21,ATGTTCCATGTTAGGGGTTTGTCCAAGAAA,1.95
22,AAATCACACGAAACAAGTAGCAGTTCAAAA,-1.32
23,TAAGACAACTTTCTCCTCCAGGACCTTGCC,-1.09
24,CCAAAGGGCATTCTGGAGTTTGGAACCAAA,4.28
25,ATTTACATTCCAGAGTAAACGTTTCTCTCT,-1.29

row,Sequence,binding signal (log2 normalized intensity)
1,ATTTAGCCTTTAACCTGCAGTTTCCCTATT,1.47
2,ACACTCCCATCTGCCATCAGTATCCCAGTT,0.239
3,TCCAAAGTCCTTCTAAAGCAAATTTATAGG,0.88
4,CTGTCAAGTCCAAAGTTCTTGGCCAGGCAT,3.1
5,ACTTTGGACCTTTGTGTGTGTGTGTGTGTG,3.49
6,CTTTATACCTGTACGTTACTCTGTACCTCG,1.8
7,GATCATGATTATAAACCTGCCTACATCAAG,-1.07
8,AGTTACAGTCACTCCCTATCAACCAAATCA,-1.25
9,AGAAAACTCAACTTCTAACTTCCGGCTGGC,-1.39
10,CGCTGGGAAGACAGTCTTGGGCACAAAGTA,-1.32
11,ACTCCACAAGACCACAAGGTGGCGATAACT,-1.27
12,GACATCTGGGAACAAGTTCTGCAGACTCCC,-1.37
13,CCCTTCTTCTCCTCCCAACAGGTATGCTCC,1.62
14,CAACCAAGTCCATCTGTATTGCCTCCTTTG,1.28
15,CAGTTTTACAAAGTGGTTGTAGCAGTTCAC,1.46
16,TGTTTTGGAGTTAGCTGTCTTTCTGATAAG,1.04
17,CCTTGCTATGGAGTGGACTTTGGCTTATGC,7.08
18,GCCTCTTAACAGATGAGGACATTTCAGCAA,-1.3
19,CAGAGACAATGTGAGCAGGTGTGTGGCATC,0.13
20,AGTAGCATTATCTCCTTGCTGTGCACTTCT,0.943
21,GTGAGGGGTTATGGAGAGTGGAAGACTGCA,-1.43
22,TTGCCCCTTCCAAAGTCCACCTCAACCTCC,4.75
23,CACCCGGTTGGCGCCAATACCTGCCGCGCG,-1.18
24,TATAGACTGTGATAATGCTCTTAATACTGT,-0.0745
25,TTGCCTTGTCCTTAGACAGTAACCCTTGAG,2.42

row,Sequence,binding signal (log2 normalized intensity)
1,AAAAGGTATTTTTTGAATGACAGTGTCAGG,1.49
2,AGAGCCACCCTCAAATCAGTGAAGGCCTCT,-1.38
3,AATGGAAGAATCACAGTGTGGGGCAAATCT,-1.06
4,CTAACTGTGTTGAATTAGTACCTCAATGCT,-1.05
5,GTGCTTGGACCTGCTCTGTTTTCTTTCGGT,1.24
6,CACAAAGAAGACCCTTTCTTATCTAAGCCA,-1.45
7,GGACACCGAGGTCCTGGGGCGATGCTTCCA,-1.31
8,GATAGATATGTTGAAGTGACTAAATGAGAA,-0.611
9,TCTTCGCCTTGCTTATCTGGGAGGGGGAGG,-1.21
10,CATCTGGACTTTACACAGACCTTTACCCAC,3.96
11,CTCTAAGTAATCAATGGTTGCACTCTGGTG,1.8
12,AGGAAACTTAAGTCTCAAAGGTCAGATGAC,5.46
13,TTGGAGACAGTGAGACGCAAGCATATCTCT,-1.26
14,GCTAATGTCTCTCTGGCCGGAGGGGAGGTT,-0.555
15,CTCCGTTTGCTATGGCCTTTCTTCATTGTT,1.43
16,TCTCCAAAATAGGGTAGTTTGGAGATGCCG,0.621
17,CACTTCTGAAAAAAATATTGAACAAAGATT,0.276
18,GGCCAAAGGTGAAGGAGAATATTAGATGAT,0.51
19,CACCCTTCATAGAATTGAAGAGAGTTAGGG,-1.18
20,CTGCTGTAATAAAGCCTTATCTGACCAGGG,-0.267
21,AATTGACAAGAGTGTGGCTCAGGTTGCTGC,-1.21
22,AAATGCCATAGTCCAAAGTGGCAGTCGCCT,0.79
23,TACACCTGGGGGCTTCCCAACTCCATTATC,-1.15
24,GAAGAACTGATTCCAAAGGAAATCACATAG,-1.31
25,GGAGGGATCAAGCAGGTGACCTTCGATCAC,6.67

row,Sequence,binding signal (log2 normalized intensity)
1,TGAAATAGCATGAATTTGGTACCTCCCCCC,5.29
2,GATAGACTTATCTCAGCCTGGCTAAAACCC,-1.38
3,CTCTGCCCTTGGCCTACTTAGTCCAGGTTT,1.03
4,TGCTTTCTGACTCTTTCTTTACAGGAAAAA,-0.983
5,ACTTGTTCCCTGTCGCTATCTTATCTGGGC,0.524
6,CCAAGCCTAGAAAAACAACTAAAGGAATGC,-1.4
7,TGAGACTTTGGACTTTTGAACTAAGGCTGG,5.5
8,ACGAAAGGGACTTTGATCTTCTTACCCCTT,5.81
9,TGAGGAATCTAAGATAAGCAGCATTCCACC,-1.12
10,GATTTTAGAAGTCACTCCTTCCTCAAGACC,-1.49
11,AGGTCAAAGTTTGCCTTGACCTCTAAAGGG,3.87
12,TACTAAAACAGGGAGCAGGCAGATTTGACC,2.09
13,AGGGCAGAGGTCAGCCCACAGGTCAATCCA,3.09
14,ACCTTTTAGATAGTAGCCCTTTGTATCTTT,2.78
15,GATTAGGAGAGGGAGAGTGAGTGAGTGTGT,1.32
16,CTCTACCCCATGATGATAGCAAACACGATT,1.15
17,ACTGTCTCGGGGATTAGCGATCATGGGTGA,-1.34
18,CTGGTTGAAGGGGAGGTTATCTTGGGGCTG,-0.0965
19,CCTGAGCCTGGACCTTGGAATGTCAAGATT,3.05
20,CATTTCCTTACAAACACAACATTGAAAGCG,-1.07
